Measured values as given in the supplement of paper PMC3334620.
The full ranking holds about 33,000 sequences; the median of “E-score (-0.5 to 0.5)” is about -0.021, and the highest 2% start at about 0.32. The list shows a part of the results.

Target: T1, Zap1 (UniProt P47043)
T1 sequence: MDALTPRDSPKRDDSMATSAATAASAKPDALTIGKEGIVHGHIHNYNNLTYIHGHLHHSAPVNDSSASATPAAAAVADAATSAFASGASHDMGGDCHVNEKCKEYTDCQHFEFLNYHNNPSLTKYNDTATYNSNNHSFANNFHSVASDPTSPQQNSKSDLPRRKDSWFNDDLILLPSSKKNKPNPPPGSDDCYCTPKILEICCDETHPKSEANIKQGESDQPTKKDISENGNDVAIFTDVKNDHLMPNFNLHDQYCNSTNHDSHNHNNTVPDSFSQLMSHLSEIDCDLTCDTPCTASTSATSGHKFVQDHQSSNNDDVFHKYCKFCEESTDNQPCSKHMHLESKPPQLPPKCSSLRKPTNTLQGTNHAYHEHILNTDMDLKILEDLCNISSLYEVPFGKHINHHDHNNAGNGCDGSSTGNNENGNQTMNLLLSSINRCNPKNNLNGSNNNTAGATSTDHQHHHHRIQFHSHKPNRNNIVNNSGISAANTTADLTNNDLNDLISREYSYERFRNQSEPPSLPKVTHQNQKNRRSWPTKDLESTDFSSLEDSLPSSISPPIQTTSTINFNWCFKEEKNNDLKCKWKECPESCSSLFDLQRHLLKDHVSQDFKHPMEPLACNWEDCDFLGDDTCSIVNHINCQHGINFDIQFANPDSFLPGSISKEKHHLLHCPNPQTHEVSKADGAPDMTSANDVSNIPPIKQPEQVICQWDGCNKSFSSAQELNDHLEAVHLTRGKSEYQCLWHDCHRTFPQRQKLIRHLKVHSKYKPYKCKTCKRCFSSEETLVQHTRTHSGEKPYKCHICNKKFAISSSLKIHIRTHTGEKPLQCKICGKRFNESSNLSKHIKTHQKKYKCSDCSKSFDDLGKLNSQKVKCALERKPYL
Assay: PBM E-score (8-mer binding enrichment) (E-score (-0.5 to 0.5)); higher = stronger / more preferred TF binding; most listed sequences are background and not binding sites
Conditions: protein concentration: 200 nM; construct: GST-full length
Method in brief: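 Yeast transcription factors, full-length or as DNA-binding domains, were expressed with a GST tag using PURExpress in vitro transcription/translation. At about 100-200 nM they were applied to universal all-10-mer Agilent arrays, double-stranded by primer extension on fresh or once-stripped slides. Fluorescent anti-GST detected bound protein, and masliner normalised the scans. E-scores for ungapped eight-base words, pooled with reverse complements, came from the Universal PBM Analysis Suite.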

Row | Sequence | PBM E-score
1 | TCCTTCAA | -0.0972
2 | TCCATCCA | -0.191
3 | AGCTACGA | -0.279
4 | CATTCTCC | -0.0826
5 | GCGCTTCC | -0.285
6 | GCTTGAAA | -0.0108
7 | ATAACGTC | -0.0403
8 | TCGCTTCA | -0.042
9 | GGCAGACA | -0.171
10 | GCCCCAAA | 0.129
11 | CTTTGTCA | 0.13
12 | ACCGCAAG | 0.153
13 | GATCATAC | 0.0802
14 | AGGAATGG | -0.0291
15 | AGACTTCC | -0.195
16 | AATACACC | 0.275
17 | CGACCTAG | 0.0865
18 | CGACTGGC | -0.264
19 | ATACAAGC | 0.0332
20 | ACTTTATA | 0.037
21 | CTGTTGAC | 0.00032
22 | CAGGGTGG | 0.283
23 | ACATGTGA | 0.0274
24 | AGATACGC | -0.184
25 | ACGTCCTC | -0.0986
26 | CAAAATAA | 0.231
27 | ATCTGAGA | -0.109

Row | Sequence | PBM E-score
28 | CACATATC | 0.11
29 | GATGACCA | 0.129
30 | ATTCTACC | 0.117
31 | ATTGACTC | 0.049
32 | ATGTTCGA | 0.0487
33 | GTCAGGGA | -0.111
34 | AGCATAAC | 0.134
35 | GCTCGGTA | -0.0125
36 | TACGGATA | 0.126
37 | GCGCACAC | -0.234
38 | CGCAACGC | -0.0939
39 | ACAGTTTA | 0.0549
40 | GAGCACCC | 0.0439
41 | CAAGTCAC | -0.1
42 | GGGGATAC | 0.0806
43 | CAGATTTC | -0.097
44 | CCTAGAGC | -0.235
45 | CACGCCTA | -0.203
46 | CGGATTAC | -0.0478
47 | GTTTCACA | 0.162
48 | CGTTGGAG | -0.103
49 | GGCTTTCA | -0.00287
50 | ACGTGCCC | -0.226
51 | GCCGCCCA | 0.018
52 | GACTGCCA | -0.0641
53 | AATGAAGG | 0.0657
54 | ACGCACAA | 0.0143

Row | Sequence | PBM E-score
55 | AGTCAAAG | -0.00893
56 | CCTCGATA | 0.123
57 | AGTCTGGA | -0.118
58 | GCTTCCTA | -0.241
59 | AACAAACG | -0.0326
60 | GCGGTCCC | 0.0517
61 | TCTCTACA | 0.158
62 | TTAGGGAA | -0.12
63 | CAGAGAAC | -0.0592
64 | AGGCACGA | -0.07
65 | ATGAAAGC | 0.0514
66 | AACAATGC | -0.0753
67 | TCTCCACA | 0.0177
68 | CAGAGGCC | -0.0571
69 | CACTGCGG | 0.0859
70 | GTATGGAC | -0.0155
71 | GGATATCA | 0.0363
72 | GCGCACGA | -0.0144
73 | AAGACCCT | 0.261
74 | AAGGACCC | 0.248
75 | GAAAATCC | -0.0374
76 | ACGAGATA | -0.0859
77 | CCTATTCA | 0.207
78 | TCTACTCA | -0.0823
79 | AACTCCCC | -0.143
